# In publication PMC6919601, “Identification of Plasmodium dipeptidyl aminopeptidase allosteric inhibitors by high throughput screening” (PLoS ONE, 2019):
# “And” between values parts separate entries of the source, which are not always exact repeats. Equal values may be shown once. Hit rate of the full screen: of about 110,000 compounds, about 230 (0.21%) showed an effect of 50% or more. This is one part of the list.
# Target: DPAP1 (Plasmodium falciparum, UniProt Q8IIJ9)
# Assay: primary screen, percent inhibition; read by cleavage of a fluorogenic dipeptide substrate; higher = more effect of the substance
# Set-up: species or system P. falciparum D10 trophozoite lysates; single well
# 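Note: 30 min substrate incubation versus DMSO and 10 µM JCP410 controls.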
# DPAP1, sequence (Q8IIJ9 whole entry, looked up): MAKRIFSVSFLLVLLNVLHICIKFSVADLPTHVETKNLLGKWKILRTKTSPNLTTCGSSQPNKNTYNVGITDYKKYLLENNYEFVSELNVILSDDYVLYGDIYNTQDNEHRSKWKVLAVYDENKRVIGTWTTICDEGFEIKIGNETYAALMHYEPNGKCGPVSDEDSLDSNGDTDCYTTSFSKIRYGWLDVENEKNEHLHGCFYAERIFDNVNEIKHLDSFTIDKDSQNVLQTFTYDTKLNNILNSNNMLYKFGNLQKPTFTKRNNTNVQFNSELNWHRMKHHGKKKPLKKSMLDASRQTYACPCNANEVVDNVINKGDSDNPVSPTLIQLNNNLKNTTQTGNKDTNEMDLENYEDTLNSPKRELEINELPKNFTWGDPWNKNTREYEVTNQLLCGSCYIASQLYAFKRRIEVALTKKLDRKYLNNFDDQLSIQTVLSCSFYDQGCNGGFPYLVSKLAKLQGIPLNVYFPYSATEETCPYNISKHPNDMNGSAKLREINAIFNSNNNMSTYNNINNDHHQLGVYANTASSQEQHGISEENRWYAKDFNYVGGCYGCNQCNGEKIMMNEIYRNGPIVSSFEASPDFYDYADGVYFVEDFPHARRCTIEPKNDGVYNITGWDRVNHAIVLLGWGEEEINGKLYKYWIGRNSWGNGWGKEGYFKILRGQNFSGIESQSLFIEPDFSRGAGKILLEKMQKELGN
row,SMILES,% Inhibition @ 10 uM
1,O=C(NCC1(c2ccccc2)CCCC1)C1(c2ccccc2)CCOCC1,-2.59%
2,NC(=O)COc1cccc(/C=C2/SC(Nc3cccc(C(=O)O)c3)=NC2=O)c1,2.01%
3,O=C(CSc1nc(NCCc2ccccc2)c2ccccc2n1)NCc1ccccc1,4.02%
4,CCCCOc1ccc(-c2ncc(C)cn2)cc1,1.88%
5,Cc1ccc(NS(=O)(=O)c2cc(-c3onc(C)c3C)ccc2C)nc1,-10.6%
6,COc1ccc(CN2CCN(Cc3ccc(Br)cc3)CC2)c(OC)c1OC,-6.27%
7,O=S(=O)(c1ccc(Cl)cc1)n1nc(-c2cccnc2)nc1NCc1ccccc1,2.21%
8,CC(C)c1ccc(NC(=O)c2ccc3c(c2)OCO3)cc1,-1.49%
9,CCN(CC)c1ccc2c(c1)OC(N)=C(C#N)C2c1cccs1 (centres unmarked),3.96%
10,Nc1cccc(-c2cc(C(=O)O)c3ccccc3n2)c1,2.41%
11,CCC(=O)N1N=C2C3CCN(CC3)C2C1c1cc(OC)c(OC)c(OC)c1 (centres unmarked),6.31%
12,CC1(C)CC(=O)C(=C2NC3(CCCCCC3)Cc3ccccc32)C(=O)C1,2.38%
13,Cc1cc(Cl)ccc1OCC(=O)Nc1ccccc1N1CCOCC1,-0.425%
14,CN1CCN(c2cc(-c3ccc4ccccc4c3)nc3ccccc23)CC1,-6.82%
15,CCCNC(=O)c1cc2n(n1)C(C(F)(F)F)CC(c1ccc3c(c1)OCO3)N2 (centres unmarked),2.51%
16,CCOC(=O)c1cc(-c2ccccc2)n(CCC(=O)NC2CCN(C(=O)OCC)CC2)c1C,1.47%
17,CCC[C@H](NC(=O)[C@H](CCS(=O)(=O)c1ccccc1)NC(=O)N1CCOCC1)C(=O)c1nc2ccccc2o1,-10.7%
18,CC(NC(=O)c1cc(-c2ccc3c(c2)OCO3)nc2ccccc12)C1CCCO1 (centres unmarked),1.25%
19,CCOC(=O)c1sc(NC(=O)/C=C/c2ccco2)nc1C,26.6%
20,C=CCN1C(=O)N/C(=C/c2cc(C)n(-c3cc(C)cc(C)c3)c2C)C1=O,1.71%
21,CCNC(=O)CN(Cc1ccc(Br)cc1)S(=O)(=O)c1ccc(C)cc1,-1.6%
22,CCCc1cc(=O)oc2c3c(ccc12)OCN(Cc1cccc(OC)c1)C3,3.36%
23,Cc1ccc2onc(CNC(=O)Nc3nc(C)cs3)c2c1,-0.826%
24,COc1cccc(S(=O)(=O)Nc2ccc(C(=O)Nc3ccc4sc(C)nc4c3)cc2)c1,0.583%
25,O=C(C1c2ccccc2C(=O)N(C2CCCC2)C1c1cccs1)N1CCc2ccccc2C1 (centres unmarked),2.78%

row,SMILES,% Inhibition @ 10 uM
1,COc1ccc(Cl)cc1NC(=O)c1ccc(Cn2nc(C)cc2C)o1,-5.57%
2,S=C(Nc1ccccc1)NC1C2CN3CCN(C2)CC1(c1ccccc1)C3 (centres unmarked),1.57%
3,CC(C)(C)c1ccc(-c2csc3nc4c5ccccc5c(N5CCOCC5)nn4c(=O)c23)cc1,1.84%
4,Cc1cc(C)c2c(-n3cccc3)c(C(=O)NCCN(C)C)sc2n1,3.67%
5,CCOc1ccccc1NC(=O)c1ccc(Br)o1,3.04%
6,CC1CN(Cc2c(F)cccc2Cl)CC(C)O1 (centres unmarked),4.55%
7,Cc1cccn2c(=O)c(/C=C(\C#N)C(=O)NC3CCS(=O)(=O)C3)c(Oc3ccccc3Cl)nc12 (centres unmarked),3.63%
8,O=C(NCCCN1CCC(Cc2ccccc2)CC1)c1ccc2nc(N3CCOCC3)sc2c1,-2.59%
9,C=CCNC(=O)CN(c1cc(C(F)(F)F)ccc1Cl)S(=O)(=O)c1ccccc1,3.62% and 1.19%
10,Cc1ccc(C)n1-c1nnc(N2CCCC(C(=O)NCc3ccccc3Cl)C2)s1 (centres unmarked),1.03%
11,COCCCNC(=O)c1cc(Sc2cccc(Cl)c2)nc2ccccc12,-2.26%
12,COc1cc(C2C(C#N)=C(N)N(c3ccc(Cl)cc3)C3=C2C(=O)CCC3)cc(OC)c1OC (centres unmarked),-5.07%
13,CCCCCc1nn2cc(-c3cccc(OC)c3)nc2s1,-1.16%
14,OC(COc1ccc(Cl)cc1)CN1CCN(c2ccccc2F)CC1 (centres unmarked),-8.86%
15,CCN(Cc1ccccc1)C(=O)Cn1c(=O)cc(C)c2c(C)nn(C)c21,3.66%
16,COc1ccc(CCNC(N)=S)cc1OC,-3.27%
17,CC(C)(C)c1ccc(/C=c2\sc3ncnn3c2=O)cc1,0.222%
18,C=CCn1c(CCNC(=O)C(C)C)nc2ccccc21,-1.74%
19,O=C1C(/C=N/c2ccc(S(=O)(=O)Nc3ncccn3)cc2)=C(O)c2ccccc21,-2.68%
20,COc1ccc(S(=O)(=O)Nc2ccccc2C(F)(F)F)cc1,-6.12%
21,NC(=O)c1[nH]ncc1NCc1ccccc1O,-0.222%
22,CCCCOc1ccccc1C1C2=C(O)CCCC2=NC(C)=C1C(=O)OC(C)C (centres unmarked),11.6%
23,COc1ccc(N2CCN(C(=O)c3nn(C)c(C(F)(F)F)c3Cl)CC2)cc1,-0.99%
24,Cc1cc(Cl)ccc1NC(=O)c1cccc([N+](=O)[O-])c1C,-8.37%
25,CC[C@H](NC(=O)[C@H](C[C@H](C)c1ccccc1)NC(=O)c1cc2c(C(F)(F)F)nn(C)c2s1)C(=O)c1nc2ccccc2o1,-6.56%

row,SMILES,% Inhibition @ 10 uM
1,O=C(CSc1ncnc2[nH]cnc12)N1CCN(c2ccc(Cl)cc2)CC1,-8.41%
2,CCOCCCNC(=O)C(NC(=O)c1ccccc1O)c1ccc(C)cc1 (centres unmarked),3.61%
3,COc1ccc(C(=O)N(c2ccccc2)c2ccc3ccccc3c2)cc1OC,23.4%
4,O=C(O)CC(/N=C/C1=C(O)CCCC1=O)C(=O)O (centres unmarked),0.484%
5,OC(c1ccccc1)c1ccc(Cl)s1 (centres unmarked),-7.13%
6,O=C1S/C(=C\c2ccccc2O)C(=O)N1CCOc1ccccc1,2.01%
7,COc1ccccc1/C=C/C=C1\N=C(c2ccccc2C)OC1=O,0.997%
8,Cc1ccc(OC(C)C(=O)Nc2cccc(O)c2)cc1 (centres unmarked),1.28%
9,CCCOc1ccc(C(CC(=O)O)NC(=O)c2c(-c3ccccc3Cl)noc2C)cc1 (centres unmarked),-2.28%
10,CC(N)CNc1ccc(Cl)cc1[N+](=O)[O-] (centres unmarked),7.66%
11,O=C1CC(c2ccccc2)S(=O)(=O)c2ccccc2N1 (centres unmarked),-3.92%
12,COc1ccc(C(CC(=O)NC2CCN(Cc3ccccc3)CC2)N2Cc3ccccc3C2=O)cc1 (centres unmarked),-9.9%
13,COc1ccc(CNCc2ccc(OC)c(OC)c2OC)cc1,2.15%
14,CC(C)NC(=O)CN(c1ccc(Oc2ccccc2)cc1)S(C)(=O)=O,0.189%
15,CCCCN1C(=O)NC(NC(=O)c2ccc(F)cc2)(C(F)(F)F)C1=O (centres unmarked),1.01%
16,COc1ccc(C2CC3=Nc4ccccc4NC(c4cc(OC)c(O)c(OC)c4)C3=C(O)C2)cc1 (centres unmarked),1.8%
17,Clc1cccc(-c2noc3ncnc(N4CCCC4)c23)c1,7.21%
18,O=C(CCSc1ccc(Cl)cc1)NC12CC3CC(CC(C3)C1)C2,1.64%
19,c1ccc(CCN2CCC(NCCN3CCCCC3)CC2)cc1,3.48%
20,CCC(=O)Nc1ccc(S(=O)(=O)Nc2cc(C)cc(C)c2)cc1,1.62%
21,CCOc1ccc2nc3ncccc3c(O)c2c1,-5.51%
22,O=C1NCCc2c1[nH]c1c(Cl)ccc(Cl)c21,6.47%
23,N#C/C(=C\c1c(Oc2ccc(Br)cc2)nc2ccccn2c1=O)C(=O)NC1CCCCC1,-0.828%
24,Clc1ccc(CCNC2CCN(Cc3ccccc3)CC2)c(Cl)c1,-1.5%
25,O=C1c2cccc3c(Cl)ccc(c23)C(=O)N1Cc1cccs1,1.61%

row,SMILES,% Inhibition @ 10 uM
1,COc1ccc(CCN2C(=O)CN(Cc3ccccc3)CC2=O)cc1OC,3.47%
2,CCCCNC(=O)C(=O)NCCc1c[nH]c2ccccc12,-1.82%
3,Cc1ccc(-c2nc(CS(=O)CC(=O)NCc3cccs3)c(C)o2)cc1 (centres unmarked),-6.64%
4,CC(C)Cn1cc(NC(=O)N2CCCCCC2)c2ccccc2c1=O,-2.71%
5,CC(NC(=O)C1CCN(S(=O)(=O)c2c[nH]cn2)CC1)c1ccccc1 (centres unmarked),-0.499%
6,Cc1cc2ncc(S(=O)(=O)c3ccccc3)c(-c3ccc(Br)cc3)n2n1,-5.69%
7,Cc1ccc(NC(=O)Nc2ccc(Cl)cc2)cc1NC(=O)Nc1ccc(Cl)cc1,-7.35%
8,O=C(O)C1C2C=CC(CC2)C1C(=O)O (centres unmarked),6.31%
9,O=C(O)C1CSC2(CCN(Cc3ccccc3)CC2)N1 (centres unmarked),1.92%
10,Cc1nc2nc(NC(=O)c3cccs3)nn2c(O)c1Cc1ccccc1,3.66%
11,CCCc1ccc(OCCN2C(=O)c3ccccc3C2=O)cc1,-1.85%
12,CCCN(CCC)c1sc(S(C)(=O)=O)nc1S(=O)(=O)c1ccc(C)cc1,5.84%
13,CCCc1nc2nc(C)cc(NCCc3ccc(Cl)cc3)n2n1,-6.22%
14,Nc1c(C(=O)c2ccc(Cl)cc2)sc2nc(-c3ccccc3)ccc12,-0.261%
15,Cc1ccc(C(=O)NCc2cccc(CNC(=O)c3ccc(C)o3)c2)o1,4.81%
16,CCN(CC)c1cc(=O)n2c(n1)SCCC2,0.558%
17,CC1=CC(=Cc2sc3ccccc3[n+]2C)C=C(C)O1,4.41%
18,COC(=O)c1ccc(C2Oc3c(OC)cccc3C3CC(c4cc(C)ccc4O)=NN32)cc1 (centres unmarked),0.0719%
19,O=C(CN(Cc1ccccc1)S(=O)(=O)c1ccc(Br)cc1)Nc1ccc(F)cc1,7.03%
20,CC(C)(C)NC(=O)c1oc2ccccc2c1NC(=O)c1ccc2c(c1)OCO2,-2.9%
21,CC(C)CN(CC(C)C)c1nnc(NC(=O)NC23CC4CC(CC(C4)C2)C3)s1,2.27%
22,COCCNC(=O)C1CCN(C(=O)c2ccc(-n3ccc4ccccc43)s2)CC1,-1.55%
23,CCOc1ccc(-c2c(C)nn3c(O)c(N4CCOCC4)c(C)nc23)cc1OCC,-6.09%
